Reference: ChEMBL document CHEMBL4888484, “Replenishing the malaria drug discovery pipeline: Screening and hit evaluation of the MMV Hit Generation Library 1 (HGL1) against asexual blood stage Plasmodium falciparum ,using a nano luciferase reporter read-out” (2022)
The whole screen tested about 150,000 compounds, of which about 540 (0.36%) showed an effect of 50% or more. This is one part of the list.

test system: Plasmodium falciparum; experiment: Primary screen in NF54 nanoGlo assay, in single point, at 2uM, 72h; a lower Z score goes with more inhibition; assay type: functional, Erythrocyte; conditions: timepoint 72 hour

Q: O=C(NCC(F)F)c1ccccc1Cl was tested. Which “% Inhibition” value did it give?
A: Its value is 11%.

Q: What about the Z score of the same compound?
A: The Z score was -2.21.

Q: For O=C(Nc1cccnc1)c1ccc(-n2ccnc2-c2ccncc2)cc1, which “% Inhibition” value is on record?
A: Its value is -27%.

Q: And the Z score?
A: Its Z score is 3.43.

Q: With Cc1ccccc1C(=O)Nc1sc2c(c1C(=O)N1CCCCC1)CC[C@H](C)C2 as the compound, how does the “% Inhibition” value read?
A: The value was 1%.

Q: And the Z score?
A: Its Z score is -0.15.

Q: How did the “% Inhibition” value turn out when CC(C)[C@H](CNC(=O)c1cnn(C)c1N)Cc1ccccc1 was run?
A: The value was -12%.

Q: What about the Z score of the same compound?
A: Its Z score is 1.18.

Q: Which “% Inhibition” value does the source give for COc1ccc2cc1Oc1cccc(c1)CO[C@H]1CN(CC(N)=O)C[C@@H]1NC(=O)CN(C)C2 here?
A: The value was 4%.

Q: And the Z score?
A: The Z score was -0.6.

Q: For N#CCc1ncc(CCN2C(=O)c3ccccc3C2=O)s1, which “% Inhibition” value is on record?
A: Its value is 51%.

Q: And the Z score?
A: Its Z score is -6.59.

Q: For CS(=O)(=O)c1ccc(CNC(=O)c2ccnn2C2CCC2)s1, which “% Inhibition” value is on record?
A: Its value is 2%.

Q: What about the Z score of the same compound?
A: Its Z score is -0.42.

Q: Which “% Inhibition” value does the source give for CCN(CC)c1ncc(CN2CCC(n3cncn3)CC2)s1 here?
A: The value was -7%.

Q: What about the Z score of the same compound?
A: The Z score was 0.6.

Q: Which “% Inhibition” value does the source give for O=C(c1ccco1)N(Cc1cccc(OS(=O)(=O)c2ccc(F)cc2)c1)CC1CC1 here?
A: Its value is -8%.

Q: And the Z score?
A: Its Z score is 1.52.

Q: Which results are given for Cc1ccc(-n2cc3c(N4CCC(C(=O)NCc5cc(F)cc(F)c5)CC4)ncnc3n2)cc1?
A: % Inhibition: -5%; Z score: 0.5

Q: For COc1ccccc1NS(=O)(=O)c1cc(-c2nnc(-c3ccccc3)o2)ccc1OC, which “% Inhibition” value is on record?
A: Its value is -2%.

Q: What about the Z score of the same compound?
A: Its Z score is 0.34.

Q: For O=C(NC1CCCCCC1)C1CCN(C(=O)c2ncn3c2CO[C@H](c2ccc(F)cc2)C3)CC1, which “% Inhibition” value is on record?
A: The value was -15%.

Q: What about the Z score of the same compound?
A: Its Z score is 1.37.

Q: What does the source list for CCc1nccc(CN(C)CC[C@H](C)N2CCCC2)n1?
A: % Inhibition: -10%; Z score: 1.79

Q: CCC#CCN1CCCn2nc(CN(C)C[C@H]3CC(=O)N(CC)C3)cc2C1 was tested. Which “% Inhibition” value did it give?
A: Its value is -14%.

Q: What about the Z score of the same compound?
A: The Z score was 1.31.

Q: What does the source list for Cc1ccc(C(=O)N2CC[C@H](N(C)C)[C@H](CCC(=O)O)C2)c(O)c1?
A: % Inhibition: -9%; Z score: 1.19

Q: For Cc1cc(NC(=O)c2nccnc2C(=O)O)nn1Cc1ccc(F)cc1Cl, which “% Inhibition” value is on record?
A: The value was -3%.

Q: And the Z score?
A: The Z score was 0.42.

Q: What does the source list for Cc1nn(C)cc1-c1cc(C(=O)Nc2ccc(-n3cc(Cl)cn3)cc2)no1?
A: % Inhibition: -1%; Z score: 0.12

Q: Which results are given for Cc1nsc(NC(=O)NC2CC3CC3C2)c1C#N (stereo not drawn)?
A: % Inhibition: 0%; Z score: 0.04

Q: Which results are given for O=C(Nc1ccccn1)[C@H]1CCc2[nH]cnc2C1?
A: % Inhibition: -5%; Z score: 0.86

Q: O=C(CCc1ccncc1)NCC1CCN(C(=O)c2cn[nH]c2)CC1 was tested. Which “% Inhibition” value did it give?
A: The value was 8%.

Q: And the Z score?
A: The Z score was -1.1.

Q: Cc1cnc(C(=O)N2CC(S(=O)(=O)CC(C)C)C2)cn1 was tested. Which “% Inhibition” value did it give?
A: Its value is -12%.

Q: What about the Z score of the same compound?
A: Its Z score is 1.51.

Q: What does the source list for COc1ccc(-c2nsc3c2NC(=O)C[C@@H]3c2cc3c(c(OC)c2OC)OCO3)cc1?
A: % Inhibition: -8%; Z score: 0.92

Q: How did the “% Inhibition” value turn out when CC1=C(C(=O)N2CC3(CCOC3)C2)CCC(C)(C)C1 was run?
A: Its value is -7%.

Q: What about the Z score of the same compound?
A: The Z score was 0.95.

Q: CC(C)c1cc(C(C)C)c(S(=O)(=O)n2nc(Nc3ccccc3)cc2Nc2ccccc2)c(C(C)C)c1 was tested. Which “% Inhibition” value did it give?
A: The value was -8%.

Q: What about the Z score of the same compound?
A: Its Z score is 1.19.

Q: COc1ccc(N(CN2C(=O)C3CCCCC3C2=O)C(C)=O)cc1 (stereo not drawn) was tested. Which “% Inhibition” value did it give?
A: The value was -10%.

Q: What about the Z score of the same compound?
A: Its Z score is 1.41.

Q: What does the source list for CC(C)(C[C@H]1CCCN(c2ncnc3c2CCCC3)C1)C(N)=O?
A: % Inhibition: 1%; Z score: -0.16

Q: Which results are given for O=C(COC[C@H]1CCCCO1)N1CCc2[nH]nc(C3CCCC3)c2C1?
A: % Inhibition: -1%; Z score: 0.19

Q: With C=CCOc1c(CC=C)cc(CNCc2nncn2CCOC)cc1OCC as the compound, how does the “% Inhibition” value read?
A: Its value is -6%.

Q: And the Z score?
A: The Z score was 0.81.

Q: Which results are given for CS(=O)(=O)Nc1ccc(N2CCCCCCC2)c(C(=O)O)c1?
A: % Inhibition: -16%; Z score: 1.58

Q: How did the “% Inhibition” value turn out when Cc1ccc(S(=O)(=O)NC[C@H](O)c2ccc3c(c2)CCO3)s1 was run?
A: The value was -19%.

Q: And the Z score?
A: Its Z score is 2.48.

Q: How did the “% Inhibition” value turn out when CCC1(CC)C(NC(=O)c2c[nH]c(C#N)c2)C(C)C1OC (stereo not drawn) was run?
A: The value was -12%.

Q: And the Z score?
A: Its Z score is 1.34.

Q: For CC(=O)[C@@H]1CCCCN1S(=O)(=O)CC(C)(C)C(C)(F)F, which “% Inhibition” value is on record?
A: Its value is -8%.

Q: What about the Z score of the same compound?
A: Its Z score is 1.06.

Q: Which “% Inhibition” value does the source give for CC(=O)N1CCN(C(=O)N[C@@H](C)c2ccc(Cl)s2)CC1 here?
A: Its value is 4%.

Q: What about the Z score of the same compound?
A: The Z score was -0.62.

Q: For C=C(C)CN(CC)S(=O)(=O)N1CC(C)OC(C)C1 (stereo not drawn), which “% Inhibition” value is on record?
A: The value was -14%.

Q: What about the Z score of the same compound?
A: The Z score was 1.88.

Q: Which “% Inhibition” value does the source give for Cc1nc(C#N)n(CC(=O)N(C)Cc2cccs2)c1C here?
A: The value was 4%.

Q: What about the Z score of the same compound?
A: Its Z score is -0.44.

Q: Which results are given for Cc1ccc2nc(NC(=O)CCc3ccc(S(=O)(=O)N4CCCC4)cc3)sc2c1?
A: % Inhibition: -14%; Z score: 1.46

Q: For CCn1cc(C(=O)Nc2cnn(C(C)C)c2)cn1, which “% Inhibition” value is on record?
A: The value was -5%.

Q: And the Z score?
A: The Z score was 0.88.

Q: How did the “% Inhibition” value turn out when CC(C)(C)CCNC(=O)CC[C@H]1CCCO1 was run?
A: The value was -10%.

Q: And the Z score?
A: Its Z score is 1.94.

Q: Which “% Inhibition” value does the source give for O=C(Cn1ccnc1)N1CCC[C@H](CCc2noc(-c3ccccn3)n2)C1 here?
A: The value was 0%.

Q: What about the Z score of the same compound?
A: The Z score was 0.

Q: CN=C(NC)NCc1ccccc1Cl was tested. Which “% Inhibition” value did it give?
A: The value was -6%.

Q: What about the Z score of the same compound?
A: Its Z score is 1.02.

Q: Cc1cccc2c1CCN(C(=O)[C@H]1CCn3c(cnc3C)C1)C2 was tested. Which “% Inhibition” value did it give?
A: Its value is -2%.

Q: What about the Z score of the same compound?
A: The Z score was 0.34.

Q: COC(=O)c1ccc(NC(=O)C[C@@H]2N=C(O)N(CCc3ccccc3)C2=O)cc1 was tested. Which “% Inhibition” value did it give?
A: The value was 2%.

Q: What about the Z score of the same compound?
A: Its Z score is -0.2.

Q: With Cn1c(CCc2cccc(NC(=O)c3n[nH]c4c3CCCC4)c2)nc2ccccc21 as the compound, how does the “% Inhibition” value read?
A: The value was -11%.

Q: And the Z score?
A: The Z score was 1.26.

Q: What does the source list for COc1cccc(CC(=O)N(C)[C@H]2CCOC(C)(C)C2)c1?
A: % Inhibition: 0%; Z score: -0.01

Q: C=CCCS(=O)(=O)NC1(c2cccc(OC)c2)CC1 was tested. Which “% Inhibition” value did it give?
A: Its value is -9%.

Q: What about the Z score of the same compound?
A: The Z score was 1.62.

Q: For CC1(C)NC(=O)N(CC(=O)N2CCC[C@H]2c2nnc3ccccn23)C1=O, which “% Inhibition” value is on record?
A: The value was -5%.

Q: What about the Z score of the same compound?
A: The Z score was 0.65.

Q: What does the source list for Cc1cccc(OCCc2nnc([C@H](C)Oc3ccccc3F)o2)c1?
A: % Inhibition: -6%; Z score: 1.09

Q: Which results are given for Cc1cccn2cc(C(=O)N3CCn4ccnc4C3)cc12?
A: % Inhibition: -2%; Z score: 0.27

Q: Which results are given for Cc1nn(C)cc1NC(=O)N1CCCC1CC(O)c1ccc(F)cc1 (stereo not drawn)?
A: % Inhibition: 38%; Z score: -3.23

Q: Which results are given for O=C(CS(=O)(=O)c1cccc2nsnc12)Nc1ccc(F)cc1?
A: % Inhibition: -3%; Z score: 0.41

Q: How did the “% Inhibition” value turn out when Cn1c(NC(=O)C2CC23CCOC3)nc2cccnc21 (stereo not drawn) was run?
A: The value was -5%.

Q: What about the Z score of the same compound?
A: The Z score was 0.48.

Q: COc1cn(C)c(C(=O)NCCC(c2ccccc2)c2ccccc2)cc1=O was tested. Which “% Inhibition” value did it give?
A: The value was 5%.

Q: And the Z score?
A: The Z score was -0.66.

Q: Which results are given for CN(Cc1cc[nH]n1)C(=O)CCc1ccc(-c2ccc(Cl)cc2)[nH]1?
A: % Inhibition: -8%; Z score: 0.74

Q: With Cc1cccc(-n2nc3nc(NC4CCCC4)nc(-c4cccc(F)c4)c3c2N)c1 as the compound, how does the “% Inhibition” value read?
A: The value was 4%.

Q: What about the Z score of the same compound?
A: The Z score was -0.63.
